Assay results reported in the supplement of paper PMC4967469.
Lines with a small IC50 respond at low doses; a limit (>, <) means that the fit lies beyond the doses tested. AUC is the area under the same curve over the 256-fold range up to the top dose, as a fraction; values near 1 show little effect. Any top dose called inferred is not printed in the source and was worked back from the curve model. For some of these results: Where an entry number is given, a second screen of the drug exists; the two often differ.

Key:
Experiment in all cases: Viability of human cancer cell lines after 72 h of drug (GDSC screen)
[1] = compound: Cc1cc(N2CCOCC2)cc2[nH]c(-c3c(NC[C@@H](O)c4cccc(Cl)c4)cc[nH]c3=O)nc12 [BMS-536924]; conditions: top dose 4 µM; screen: GDSC drug entry 1091; top dose inferred
Description: (§1)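 Human cancer cell lines in 384-well plates, medium with 10% serum, drug for 72 h over a 256-fold dose range (nine 2-fold or five 4-fold steps up to the top dose). Adherent lines were fixed and stained with the nucleic acid dye Syto60, suspension lines read with resazurin; signal relative to control wells, capped at 0 and 100%. One two-parameter sigmoid per drug and line, fitted in a mixed model over all curves with the slope shared within a line.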

[2] = compound: CC(C)=CC[C@@H](O)C1=CC(=O)c2c(O)ccc(O)c2C1=O [Shikonin]; conditions: top dose 16 µM; top dose inferred
Description: as §1

[3] = compound: Cc1cccc(-c2[nH]c(C(C)(C)C)nc2-c2ccc3nccnc3c2)n1 [SB-525334]; conditions: top dose 20 µM; top dose inferred
Description: as §1

[4] = compound: O=C1NC(=O)c2c1c(-c1ccccc1Cl)cc1[nH]c3ccc(O)cc3c21 [Wee1 inhibitor 681640]; conditions: top dose 2 µM; top dose inferred
Description: as §1

[5] = compound: Cc1ccc(-n2nc(C(C)(C)C)cc2NC(=O)Nc2ccc(OCCN3CCOCC3)c3ccccc23)cc1 [BIRB 0796]; conditions: top dose 10 µM; top dose inferred
Description: as §1

[6] = compound: NC(=O)c1ccc(N(C(N)=O)c2c(F)cccc2F)nc1-c1ccc(F)cc1F [VX-702]; conditions: top dose 2 µM; top dose inferred
Description: as §1

[7] = compound: O=C(c1cc(Cc2n[nH]c(=O)c3ccccc23)ccc1F)N1CCN(C(=O)C2CC2)CC1 [Olaparib]
Description: as §1

[8] = top dose 5 µM, screen: GDSC drug entry 1017, top dose inferred
[9] = top dose 10 µM, screen: GDSC drug entry 1495

Row | Cell Line | AUC [1] | IC50 [1] [µM] | AUC [2] | IC50 [2] [µM] | AUC [3] | IC50 [3] [µM] | AUC [4] | IC50 [4] [µM] | AUC [5] | IC50 [5] [µM] | AUC [6] | IC50 [6] [µM] | AUC [7, 8] | IC50 [7, 8] [µM] | AUC [7, 9] | IC50 [7, 9] [µM]
1 | MS751 (cervix, adherent) | 0.939 | > 4 | 0.522 | 1.14 | 0.977 | > 20 | 0.989 | > 2 | 0.99 | > 10 | 0.99 | > 2 | 0.962 | > 5 | 0.93 | > 10
2 | NCI-H358 (lung adenocarcinoma, adherent) | 0.848 | 3.48 | 0.408 | 0.544 | 0.575 | 2.06 | 0.945 | > 2 | 0.889 | > 10 | 0.978 | > 2 | 0.984 | > 5 | 0.978 | > 10
3 | NCI-H520 (lung squamous cell carcinoma, adherent) | 0.96 | > 4 | 0.506 | 1.04 | 0.885 | > 20 | 0.987 | > 2 | 0.981 | > 10 | 0.987 | > 2 | 0.987 | > 5 | 0.979 | > 10
4 | NCI-H596 (lung adenocarcinoma, adherent) | 0.893 | > 4 | 0.457 | 0.74 | 0.862 | > 20 | 0.982 | > 2 | 0.982 | > 10 | 0.981 | > 2 | 0.981 | > 5 | 0.931 | > 10
5 | NCI-H661 (large cell lung carcinoma, adherent) | 0.851 | > 4 | 0.701 | 4.17 | 0.889 | > 20 | 0.905 | > 2 | 0.88 | > 10 | 0.98 | > 2 | 0.98 | > 5 | 0.925 | > 10
6 | NCI-H727 (lung carcinoid, adherent) | 0.839 | > 4 | 0.428 | 0.559 | 0.957 | > 20 | 0.94 | > 2 | 0.942 | > 10 | 0.971 | > 2 | 0.96 | > 5 | 0.937 | > 10
7 | NCI-H1048 (small cell lung carcinoma, adherent) | 0.948 | > 4 | 0.716 | 3.78 | 0.51 | 1.33 | 0.916 | > 2 | 0.984 | > 10 | 0.99 | > 2 | 0.91 | > 5 | 0.821 | 5.03
